Reference: PMC4336329 (PLoS ONE, 2015)
About 14,000 (4.5%) of roughly 310,000 compounds showed an effect of 50% or more. The effect is printed as a negative number. Some of the results follow.

Each compound was assayed against human ether-à-go-go-related gene (hERG) potassium channel (human, UniProt Q12809) (assay: primary screen, population patch clamp on CHO cells stably expressing hERG).
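Also: peak tail current of the secondary pulse compared with the same well before compound.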

human ether-à-go-go-related gene (hERG) potassium channel, sequence (Q12809 whole entry, looked up): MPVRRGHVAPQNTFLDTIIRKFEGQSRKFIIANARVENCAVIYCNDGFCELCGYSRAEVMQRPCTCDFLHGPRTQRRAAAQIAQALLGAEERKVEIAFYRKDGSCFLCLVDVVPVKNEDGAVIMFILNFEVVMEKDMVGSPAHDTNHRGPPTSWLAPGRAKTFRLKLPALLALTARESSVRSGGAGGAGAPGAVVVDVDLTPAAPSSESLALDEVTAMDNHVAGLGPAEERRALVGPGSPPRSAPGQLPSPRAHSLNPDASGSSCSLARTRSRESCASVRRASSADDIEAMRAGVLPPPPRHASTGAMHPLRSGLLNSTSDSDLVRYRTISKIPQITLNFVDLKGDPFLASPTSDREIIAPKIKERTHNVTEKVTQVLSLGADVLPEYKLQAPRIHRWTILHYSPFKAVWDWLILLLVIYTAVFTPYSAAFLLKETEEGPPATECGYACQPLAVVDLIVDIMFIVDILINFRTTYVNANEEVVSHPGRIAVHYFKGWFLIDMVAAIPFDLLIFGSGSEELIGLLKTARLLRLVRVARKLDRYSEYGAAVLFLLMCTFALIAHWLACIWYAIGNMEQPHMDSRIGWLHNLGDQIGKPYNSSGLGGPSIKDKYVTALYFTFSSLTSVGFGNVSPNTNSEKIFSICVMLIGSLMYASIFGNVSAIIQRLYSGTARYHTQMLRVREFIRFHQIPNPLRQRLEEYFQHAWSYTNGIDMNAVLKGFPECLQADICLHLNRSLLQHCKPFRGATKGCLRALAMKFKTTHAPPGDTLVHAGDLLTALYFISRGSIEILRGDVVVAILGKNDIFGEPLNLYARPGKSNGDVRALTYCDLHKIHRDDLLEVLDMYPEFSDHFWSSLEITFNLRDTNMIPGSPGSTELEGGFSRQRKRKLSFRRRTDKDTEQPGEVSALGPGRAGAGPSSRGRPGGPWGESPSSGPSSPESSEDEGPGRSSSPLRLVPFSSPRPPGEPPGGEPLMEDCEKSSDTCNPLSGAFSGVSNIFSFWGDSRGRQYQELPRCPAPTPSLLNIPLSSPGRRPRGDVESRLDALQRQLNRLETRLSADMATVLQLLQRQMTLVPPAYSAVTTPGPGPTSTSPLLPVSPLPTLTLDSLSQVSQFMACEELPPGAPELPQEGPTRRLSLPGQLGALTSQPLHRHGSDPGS

| SMILES | hERG current change (%, negative = inhibition) at 10uM [%] |
| --- | --- |
| O=C(O)CCc1ccc(-c2ccccc2)n1CC(=O)Nc1cccc(C(F)(F)F)c1 | 24.2 |
| CN1C(=O)NC(=O)[C@]2(Cc3ccccc3N3CCN(c4ccccc4)CC32)C1=O (stereo partly drawn) | 0.699 |
| Cc1ccc(OCC(=O)Nn2cnc3ccccc32)cc1 | 8.56 |
| COc1cc(CN(C)Cc2cccc3ccccc23)cc([N+](=O)[O-])c1O | 11.9 |
| O=C(COc1cccc(Br)c1)N/N=C1\CCSC1 | 15.6 |
| Nn1c(-c2ccccc2)nc2ccccc2c1=O | 2.35 |
| CC(C)(C)NS(=O)(=O)c1cccc(S(=O)(=O)c2cccc(S(=O)(=O)NC(C)(C)C)c2)c1 | -35.3 |
| COc1cccc(C(=O)CC(=O)C(=O)Nc2cc(Cl)c(OC)cc2OC)c1 | -1.34 |
| Cn1nc(CC(=O)N2CCN(c3ccccc3)CC2)c2ccccc2c1=O | -16.1 |
| CCn1c(SCC(=O)c2cc(OC)ccc2OC)nnc1-c1ccncc1 | -14.7 |
| O=C(Cc1csc(N2CCOCC2)n1)N/N=C/c1ccc(F)cc1 | -7.15 |
| C[C@H](NC(N)=O)C(=O)OCC(=O)Nc1ccc(OC(F)F)cc1 | -11 |
| O=C(CCn1nnc2ccccc21)NNC(=O)C1CCCCC1 | 20.6 |
| CCn1c(SCc2nc(-c3ccc(OC)c(OC)c3)no2)nnc1-c1cccs1 | -40.1 |
| CN(C)c1ccc(-c2noc(-c3ccccc3O)n2)cc1 | 2.46 |
| CCCCn1c(N)c(N(CC)C(=O)c2cccc(S(=O)(=O)N3CCCc4ccccc43)c2)c(=O)[nH]c1=O | 6.63 |
| COC(=O)c1sc(SC)c2c1CC(C)(C)C/C2=N/O | 10.6 |
| COC(=O)Cn1c2c(c3cc(C)ccc31)CCCC2 | -4.61 |
| CC(=O)C1=C(C)NC(SCC(N)=O)=C(C#N)C1c1sccc1C (stereo not drawn) | 0.306 |
| O=C(c1cccc(S(=O)(=O)N2CCOCC2)c1)N1CCN(S(=O)(=O)c2cccs2)CC1 | 5.04 |
| O=C(OCC(=O)N1CCOCC1)c1cnc(Cl)c(Cl)c1 | 4.08 |
| Cc1onc(-c2ccccc2Cl)c1C(=O)OCc1cnc(Cl)s1 | -4.98 |

| SMILES | hERG current change (%, negative = inhibition) at 10uM [%] |
| --- | --- |
| NC(=S)N/N=C/c1cccc(O)c1O | 29.3 |
| COc1ccc(CCNC(=O)c2cccc(S(=O)(=O)N3CCCCC3)c2)cc1 | -14.9 |
| CC(=O)OC(C(=O)NCS(=O)(=O)c1ccc(C)cc1)c1cccnc1 (stereo not drawn) | 21.7 |
| CC(NC(=O)CSc1ncnc2nc[nH]c12)c1ccccc1 (stereo not drawn) | 18.6 |
| Cc1ccc(N2CC(C(=O)Nc3c4c(nn3C(C)(C)C)CS(=O)(=O)C4)CC2=O)cc1C (stereo not drawn) | -4.5 |
| CC(=O)Nc1ccc(NC(=O)c2ccc(Cl)nc2)cc1 | -4.1 |
| Cc1oc(C(C)(C)C)cc1C(=O)N1CCN(c2ccc(C(F)(F)F)cn2)CC1 | -5.33 |
| COc1ccc(/C=C/C(=O)c2cc(Br)ccc2OC(=O)c2ccco2)cc1OC | 13.5 |
| CN(C)C(=O)COC(=O)/C=C/c1ccccc1[N+](=O)[O-] | 13.9 |
| CCOc1cc(/C=C2/C(=O)N(c3ccccc3)N=C2C)ccc1OC(=O)c1cccs1 | 0.718 |
| Cc1cc(CN(C)C(=O)CC2C(=O)NCCN2CC(c2ccccc2)c2ccccc2)on1 (stereo not drawn) | -24.1 |
| O=C(CSc1nncs1)N1CCN(C(=O)c2ccco2)CC1 | 5.31 |
| Cc1ccccc1NC(=S)N1CCCN(Cc2ccc(F)cc2)C1 | -9.49 |
| COc1ccc(S(=O)(=O)N2CCC(C(=O)NCCC(=O)NCc3ccccc3OC)CC2)cc1 | -7.42 |
| CC(C)Oc1cccc(C(=O)Nc2ccc(NC(=O)c3ccco3)cc2)c1 | 6.06 |
| N#Cc1c(N)nc2c(c1-c1ccc(F)cc1)c(=O)nc1sccn12 | 36.5 |
| O=C(Nn1c(O)c(C=C2N=c3ccccc3=N2)sc1=S)c1ccc(Cl)cc1 | 6.92 |
| O=C(c1cccc(C(=O)N2CCN(c3ccc(F)cc3)CC2)c1)N1CCN(c2ccc(F)cc2)CC1 | -72.5 |
| OCCC1CN(Cc2ccon2)CCN1Cc1ccc(F)c(F)c1 (stereo not drawn) | -13.9 |
| COc1ccccc1NC(=O)C(NC(=O)c1ccc(C)cc1)c1ccccc1 (stereo not drawn) | 15.2 |
| CCOc1cccc(N(C(=O)Cc2cccs2)C(C(=O)NC2CCCCC2)c2cccn2C)c1 (stereo not drawn) | -5.98 |
| CCOc1ccc(CN(C(=O)c2cc3ccccc3oc2=O)C2CCS(=O)(=O)C2)cc1 (stereo not drawn) | -40.4 |

| SMILES | hERG current change (%, negative = inhibition) at 10uM [%] |
| --- | --- |
| CC(C)(C)P(=O)(N1CCOCC1)N1CCOCC1 | 24.1 |
| CN(C)c1nc(-c2cccnc2)nc(-c2ccccc2)c1C#N | 10.3 |
| O=C(O)c1cccc(S(=O)(=O)Nc2cccc3ccccc23)c1 | 16.5 |
| COc1cc2nc(CSc3nc(-c4ccc(F)cc4)cs3)[nH]c(=O)c2cc1OC | 3.36 |
| COc1cc(/C=N/NS(=O)(=O)c2ccc(Br)cc2)ccc1O | 1.58 |
| C=CCNS(=O)(=O)c1ccc(OC)c(C)c1 | 3.59 |
| CCCCN1C(=O)C(O)=C(C(C)=O)C1c1ccccc1[N+](=O)[O-] (stereo not drawn) | 8.06 |
| O=C(NN1C(=O)c2ccccc2NC12CCCCC2)c1ccccc1 | -7.42 |
| COc1ccc(N(CC(=O)Nc2cc(C)ccc2C)S(=O)(=O)c2c(C)nn(C)c2C)cc1 | 1.59 |
| O=C(CCCN1C(=O)c2ccccc2C1=O)Nc1ccc2c(c1)OCCO2 | 12.1 |
| COC(=O)c1cc(S(=O)(=O)N2CCCCC2C)c[nH]1 (stereo not drawn) | 2.86 |
| Cc1ccc2c(c1)-c1c(cnn1CC(=O)N(Cc1ccco1)C1CCCCC1)CO2 | -13 |
| Cc1ccc(NCc2n[nH]c(=S)n2-c2ccccc2)c(C)c1 | -0.413 |
| COc1ccc(-c2ocnc2C(=O)Nc2ccc3c(c2)CCC3)cc1 | 8.64 |
| O=C(N/N=C/c1ccc(O)cc1O)/C(=C/c1ccccc1)CCO | -15 |
| CC(=O)N/C(=C\c1ccc(F)cc1)C(=O)NC(C(=O)O)C(C)C (stereo not drawn) | 13.2 |
| CCOC(=O)C1CCN(C(=O)c2cc3cc4cc(OC)ccc4nc3o2)CC1 | -31.7 |
| COc1ccc(CCN(C)CC(O)COC(c2ccc(F)cc2)c2ccc(F)cc2)cc1OC (stereo not drawn) | -79.2 |
| Cn1c(=O)[nH]c(=O)c2c1nc(SCC(=O)O)n2CCc1ccccc1 | 23.7 |
| O=C(c1ccc(NS(=O)(=O)c2ccc3[nH]c(=O)[nH]c3c2)cc1)N1CCCC(C(F)(F)F)C1 (stereo not drawn) | 14 |
| COc1ccc(S(=O)(=O)NC2CCSc3ccccc32)cc1OC (stereo not drawn) | -38.8 |
| Cc1ccc(SCC(=O)NC(=O)c2ccc(S(=O)(=O)N(C)C)cc2)cc1C | -23.8 |

| SMILES | hERG current change (%, negative = inhibition) at 10uM [%] |
| --- | --- |
| N#Cc1nc(COc2ccc(F)cc2)oc1NCCCn1ccnc1 | -64.2 |
| COC(=O)Nc1ccc(S(=O)(=O)N2CCN(c3ccc(F)cc3)CC2)cc1 | 1.63 |
| COc1ccccc1CC(NC(C)=O)C(=O)N1CCN(C(=O)Nc2ccccc2Cl)CC1 (stereo not drawn) | 11.8 |
| COc1ccccc1N(CC(=O)N/N=C(\C)c1ccccc1O)S(=O)(=O)c1ccc(C)cc1 | 12.6 |
| O=C(COc1cccc(F)c1)Nc1nc(-c2cccnc2)cs1 | 11.5 |
| COc1ccc(NC(=O)Nc2ccc(Cc3ccncc3)cc2)c(OC)c1 | -18.2 |
| C#CCOc1ccc(C2C3=C(CC(C)(C)CC3=O)N(CC(=O)O)C3=C2C(=O)CC(C)(C)C3)cc1OC | 17.5 |
| CC(Cc1cccc(C(F)(F)F)c1)NCCOC(=O)c1ccccc1.Cl (stereo not drawn) | -34 |
| Cc1ccccc1C(=O)Oc1ccc(Sc2ccc(O)cc2)cc1 | 3.37 |
| CCc1cccc(CC)c1NC(=S)NCC(c1cccnc1)N1CCOCC1 (stereo not drawn) | -17.2 |
| Cc1ccc(Nc2nc(C)c(CCC(C)C)c(=O)[nH]2)cc1 | 3.72 |
| CCOC(=O)C1CCCN(C(=S)Nc2cccc(Cl)c2)C1 (stereo not drawn) | -5.74 |
| CC(=Nc1ccc(F)cc1)c1c(O)n(C)c(=O)[nH]c1=O | 24.4 |
| Cc1cc(Cl)ccc1OCCCC(=O)N1CCOCC1 | -25 |
| COc1ccc(CCC(C)N2CCOCC2)cc1 (stereo not drawn) | 2.71 |
| Cc1ccc(NC(=O)CCC(=O)c2ccc(Br)cc2)cc1 | 8.32 |
| CCOC(=O)N1CCC(NS(=O)(=O)c2ccc(C#N)cc2)CC1 | -2.64 |
| O=C(COc1ccccc1)N1CCN(c2ccc([N+](=O)[O-])c(N3CCCCC3)c2)CC1 | -13.6 |
| CCOC(=O)c1c(C)[nH]c(C)c1-c1ccccc1OC | -13.4 |
| Cc1ccc(C)c(S(=O)(=O)N2CCNCC2)c1 | 10.4 |
| O=C(O)C1CC=CCC1C(=O)Nc1ccc(S(=O)(=O)N2CCCc3ccccc32)cc1 (stereo not drawn) | 8.21 |
